Whole data set: some 81,000 sequences, median “one-hybrid fitness for binding parS DNA” near -0.17, cut for the highest 2% near 0.51. Some of the results follow.
B1: Caulobacter ParB omega fusion; a variant is named by its letters at X, in order, B8GW30 (parent)
chain: MESVVVGEPGMSEGRRGLGRGLSALLGEVDAAPAQAPGEQLGGSREAPIEILQRNPDQPRRTFREEDLEDLSNSIREKGVLQPILVRPSPDTAGEYQIVAGERAWRAAQRAGLKTVPIMVRELDDLAVLEIGIIENVQRADLNVLEEALSYKVLMEKFERTQENIAQTIGKSXSHVANXMRLLXLPDEVQSYLVSGELTAXHARAIAAAADPVALAKQIIEGGLSVRETEALARKAPNLSAGKSKGGRPPRVKDTDTQALESDLSSVLGLDVSIDHRGSTGTLTITYATLEQLDDLCNRLTRGI

Variants of: B1
Test: one-hybrid fitness for binding parS DNA (scaled: cognate 1, non-cognate 0); higher = stronger binding
Conditions: with parS DNA site
Method in brief: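 Caulobacter ParB libraries with four specificity codons randomised were screened by bacterial one-hybrid selection in the E. coli USO strain, using a HIS3 reporter whose site lies 19 bp from the promoter. Selection ran for 48 hours at 37°C on M9 lacking histidine, with 0.1 mM IPTG and 5 mM 3-AT. Plasmids were Illumina-sequenced before and after selection, three replicate libraries were pooled, and variants with under 10 reads were dropped. Fitness is the log change in each variant's read ratio to wild type, rescaled against the cognate and non-cognate sites.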

Row | Variant | one-hybrid fitness for binding parS DNA
1 | KKHR | ≤ 0.2
2 | PLPH | ≤ 0.2
3 | ALRE | ≤ 0.2
4 | ICIN | ≤ 0.2
5 | NHEG | ≤ 0.2
6 | ICKF | ≤ 0.2
7 | SSDM | ≤ 0.2
8 | DYDR | ≤ 0.2
9 | KHET | ≤ 0.2
10 | RLYS | 1.04
11 | QNRK | ≤ 0.2
12 | RAYK | ≤ 0.2
13 | ELRA | ≤ 0.2
14 | LSGS | ≤ 0.2
15 | IMKA | ≤ 0.2
16 | QASK | ≤ 0.2
17 | VPIS | ≤ 0.2
18 | PICV | ≤ 0.2
19 | LFLV | ≤ 0.2
20 | NVRI | ≤ 0.2
21 | CDSV | ≤ 0.2
22 | NKHT | ≤ 0.2
23 | VNNG | ≤ 0.2
24 | SYNW | ≤ 0.2

Row | Variant | one-hybrid fitness for binding parS DNA
25 | TQFC | ≤ 0.2
26 | LLSR | ≤ 0.2
27 | NSWR | ≤ 0.2
28 | QVDL | ≤ 0.2
29 | KTRC | ≤ 0.2
30 | YRPN | ≤ 0.2
31 | YYAV | ≤ 0.2
32 | PNIW | ≤ 0.2
33 | PKWS | ≤ 0.2
34 | QVVF | ≤ 0.2
35 | SKNI | ≤ 0.2
36 | CSHF | ≤ 0.2
37 | IWAL | ≤ 0.2
38 | MSLD | ≤ 0.2
39 | EASN | ≤ 0.2
40 | GDVS | ≤ 0.2
41 | APQS | ≤ 0.2
42 | DHDR | ≤ 0.2
43 | RAGD | ≤ 0.2
44 | DLRL | ≤ 0.2
45 | QFTW | ≤ 0.2
46 | INIR | ≤ 0.2
47 | MYET | ≤ 0.2
48 | NADY | ≤ 0.2

Row | Variant | one-hybrid fitness for binding parS DNA
49 | EQKC | ≤ 0.2
50 | RIGI | ≤ 0.2
51 | LVAQ | ≤ 0.2
52 | NYRT | ≤ 0.2
53 | EYTF | ≤ 0.2
54 | KLAA | ≤ 0.2
55 | PFPG | ≤ 0.2
56 | AQQE | ≤ 0.2
57 | PSRY | ≤ 0.2
58 | MAYY | ≤ 0.2
59 | RIPI | ≤ 0.2
60 | NPNT | ≤ 0.2
61 | SGMV | ≤ 0.2
62 | TCCS | ≤ 0.2
63 | AKTS | ≤ 0.2
64 | PAHP | ≤ 0.2
65 | VIST | ≤ 0.2
66 | YLSN | ≤ 0.2
67 | ARSR | ≤ 0.2
68 | FDHP | ≤ 0.2
69 | ALDF | ≤ 0.2
70 | LNPV | ≤ 0.2
71 | YLPG | ≤ 0.2
72 | AADG | ≤ 0.2

Row | Variant | one-hybrid fitness for binding parS DNA
73 | HHNC | ≤ 0.2
74 | WKSC | ≤ 0.2
75 | LFIC | ≤ 0.2
76 | QDVG | ≤ 0.2
77 | TASR | ≤ 0.2
78 | RVIA | 0.522
79 | GLPW | ≤ 0.2
80 | QQGD | ≤ 0.2
81 | VHNF | ≤ 0.2
82 | ESIL | ≤ 0.2
83 | NIGG | ≤ 0.2
84 | RIAQ | ≤ 0.2
85 | KTRT | ≤ 0.2
86 | QQSC | ≤ 0.2
87 | LTMG | ≤ 0.2
88 | SYYS | ≤ 0.2
89 | PWRS | ≤ 0.2
90 | PFPW | ≤ 0.2
91 | WVAL | ≤ 0.2
92 | PNFR | ≤ 0.2
93 | PMVS | ≤ 0.2
94 | YGQY | ≤ 0.2
95 | CRFR | ≤ 0.2
96 | SWVR | ≤ 0.2

Row | Variant | one-hybrid fitness for binding parS DNA
97 | LLNC | ≤ 0.2
98 | RICA | 0.525
99 | NPTG | ≤ 0.2
100 | QLYY | ≤ 0.2
101 | FYTT | ≤ 0.2
102 | AGTS | ≤ 0.2
103 | SCQI | ≤ 0.2
104 | HMYS | ≤ 0.2
105 | RHHF | ≤ 0.2
106 | AELV | ≤ 0.2
107 | GQRT | ≤ 0.2
108 | AKLA | ≤ 0.2
109 | LNNG | ≤ 0.2
110 | QPNY | ≤ 0.2
111 | KLTM | ≤ 0.2
112 | CASK | ≤ 0.2
113 | RMKQ | ≤ 0.2
114 | RMQW | 0.249
115 | SFTF | ≤ 0.2
116 | TWIG | ≤ 0.2
117 | ERYG | ≤ 0.2
118 | AHLS | ≤ 0.2
119 | PTYA | ≤ 0.2
120 | KENG | ≤ 0.2

Row | Variant | one-hybrid fitness for binding parS DNA
121 | MMHT | ≤ 0.2
122 | CPNI | ≤ 0.2
123 | YIVG | ≤ 0.2
124 | NEVS | ≤ 0.2
125 | QKWE | ≤ 0.2
126 | IVKV | ≤ 0.2
127 | RCCM | 0.406
128 | QDFM | ≤ 0.2
129 | RSIV | ≤ 0.2
130 | LSTC | ≤ 0.2
131 | ACMR | ≤ 0.2
132 | DHYG | ≤ 0.2
133 | YYGS | ≤ 0.2
134 | MVDR | ≤ 0.2
135 | QSVE | ≤ 0.2
136 | VGKF | ≤ 0.2
137 | AVFL | ≤ 0.2
138 | VQAS | ≤ 0.2
139 | HFKF | ≤ 0.2
140 | PTHA | ≤ 0.2
141 | GVRW | ≤ 0.2
142 | KLFS | ≤ 0.2
143 | SHRS | ≤ 0.2
144 | VDQC | ≤ 0.2

Row | Variant | one-hybrid fitness for binding parS DNA
145 | FIGC | ≤ 0.2
146 | SESD | ≤ 0.2
147 | KAKQ | ≤ 0.2
148 | RQKI | ≤ 0.2
149 | VRLM | ≤ 0.2
150 | YVTL | ≤ 0.2
151 | PFAF | ≤ 0.2
152 | IACV | ≤ 0.2
153 | RFCL | ≤ 0.2
154 | WSLL | ≤ 0.2
155 | AMNC | ≤ 0.2
156 | WLAL | ≤ 0.2
157 | HVPL | ≤ 0.2
158 | THNH | ≤ 0.2
159 | ALIF | ≤ 0.2
160 | YLCV | ≤ 0.2
161 | AGIC | ≤ 0.2
162 | GHDL | ≤ 0.2
163 | QPWR | ≤ 0.2
164 | GVMR | ≤ 0.2
165 | LDKG | ≤ 0.2
166 | SGNG | ≤ 0.2
167 | GTPS | ≤ 0.2
168 | RNGR | ≤ 0.2

Row | Variant | one-hybrid fitness for binding parS DNA
169 | SQMY | ≤ 0.2
170 | EVCR | ≤ 0.2
171 | RPWW | ≤ 0.2
172 | QDPC | ≤ 0.2
173 | LAAR | ≤ 0.2
174 | RRST | 0.54
175 | AVWL | ≤ 0.2
176 | HVDQ | ≤ 0.2
177 | TGME | ≤ 0.2
178 | ATPS | ≤ 0.2
179 | HIQR | ≤ 0.2
180 | PKHC | ≤ 0.2
181 | TYLS | ≤ 0.2
182 | QGIP | ≤ 0.2
183 | QYKV | ≤ 0.2
184 | VSHK | ≤ 0.2
185 | ILMS | ≤ 0.2
186 | TRAD | ≤ 0.2
187 | QQQC | ≤ 0.2
188 | QGRY | ≤ 0.2
189 | QAET | ≤ 0.2
190 | ANCV | ≤ 0.2
191 | ALHF | ≤ 0.2
192 | RSGD | ≤ 0.2

Row | Variant | one-hybrid fitness for binding parS DNA
193 | VTLY | ≤ 0.2
194 | TTMM | ≤ 0.2
195 | YSRI | ≤ 0.2
196 | FSEN | ≤ 0.2
197 | NKMR | ≤ 0.2
198 | TRSL | ≤ 0.2
199 | IMMI | ≤ 0.2
200 | PKLI | ≤ 0.2
201 | AHMR | ≤ 0.2
202 | NMIY | ≤ 0.2
203 | HNRD | ≤ 0.2
204 | QCDK | ≤ 0.2
205 | RCEA | 0.515
206 | RFMD | ≤ 0.2
207 | NTRK | ≤ 0.2
208 | KNPK | ≤ 0.2
209 | HAHW | ≤ 0.2
210 | SINL | ≤ 0.2
211 | PVNE | ≤ 0.2
212 | SFPD | ≤ 0.2
213 | MTEE | 0.294
214 | EHDA | ≤ 0.2
215 | QGTR | ≤ 0.2
216 | QTQE | ≤ 0.2

Row | Variant | one-hybrid fitness for binding parS DNA
217 | DMMS | ≤ 0.2
218 | WCNG | ≤ 0.2
219 | YGAV | ≤ 0.2
220 | QILQ | ≤ 0.2
221 | WRKS | ≤ 0.2
222 | PMWR | ≤ 0.2
223 | TSPV | ≤ 0.2
224 | LWTS | ≤ 0.2
225 | RHMP | ≤ 0.2
226 | SDVG | ≤ 0.2
227 | KIHG | ≤ 0.2
228 | RLMD | ≤ 0.2
229 | YTGI | ≤ 0.2
230 | HSRT | ≤ 0.2
231 | GFRN | ≤ 0.2
232 | MAFS | ≤ 0.2
233 | EGHI | ≤ 0.2
234 | YWPG | ≤ 0.2
235 | DPKG | ≤ 0.2
236 | AGQD | ≤ 0.2
237 | QDIA | ≤ 0.2
238 | HQHT | ≤ 0.2
239 | LPEL | ≤ 0.2
240 | CNMM | ≤ 0.2

Row | Variant | one-hybrid fitness for binding parS DNA
241 | AHTR | ≤ 0.2
242 | QDYC | ≤ 0.2
243 | SFNR | ≤ 0.2
244 | ESFV | ≤ 0.2
245 | VAHL | ≤ 0.2
246 | IQRA | ≤ 0.2
247 | RIWG | 0.985
248 | HKVI | ≤ 0.2
249 | SHFT | ≤ 0.2
250 | VHRM | ≤ 0.2
251 | LMTE | ≤ 0.2
252 | NFLM | ≤ 0.2
253 | KRKT | ≤ 0.2
254 | CGTT | ≤ 0.2
255 | QEPQ | ≤ 0.2
256 | KWKR | ≤ 0.2
257 | AWMS | ≤ 0.2
258 | TLEN | ≤ 0.2
259 | CLMT | ≤ 0.2
260 | PRVS | ≤ 0.2
261 | QQWG | ≤ 0.2
262 | LLGW | ≤ 0.2
263 | LDTE | ≤ 0.2
264 | FVTV | ≤ 0.2

Row | Variant | one-hybrid fitness for binding parS DNA
265 | IPKR | ≤ 0.2
266 | TTTQ | ≤ 0.2
267 | LDAT | ≤ 0.2
268 | PYSV | ≤ 0.2
269 | RYAP | ≤ 0.2
270 | QMDA | ≤ 0.2
271 | QAWL | ≤ 0.2
272 | RWHS | 0.894
273 | HQRL | ≤ 0.2
274 | FIYR | ≤ 0.2
275 | MRKG | ≤ 0.2
276 | VEST | ≤ 0.2
277 | REPC | ≤ 0.2
278 | QETF | ≤ 0.2
279 | TGFT | ≤ 0.2
280 | TFSY | ≤ 0.2
281 | QSHE | ≤ 0.2
282 | FKRR | ≤ 0.2
283 | ALYV | ≤ 0.2
284 | EDKR | ≤ 0.2
285 | LTVR | ≤ 0.2
286 | QQWL | ≤ 0.2
287 | MRPG | ≤ 0.2
288 | RDGN | ≤ 0.2

Row | Variant | one-hybrid fitness for binding parS DNA
289 | NPPD | ≤ 0.2
290 | ITDS | ≤ 0.2
291 | TEVE | ≤ 0.2
292 | MCTM | ≤ 0.2
293 | MQPN | ≤ 0.2
294 | NFER | ≤ 0.2
295 | RRGC | 0.593
296 | FQDS | ≤ 0.2
297 | NPVL | ≤ 0.2
298 | RADC | 0.856
299 | CLST | ≤ 0.2
300 | VSPM | ≤ 0.2
301 | KKKR | ≤ 0.2
302 | KLTA | ≤ 0.2
303 | CSDG | ≤ 0.2
304 | TVAT | ≤ 0.2
305 | NHTR | ≤ 0.2
306 | EKQS | ≤ 0.2
